The list shows a part of the results. At the low end of the ranking the order means little. Measured with an extract: partners may take part in the binding.

The assay addresses T1, HNF4alpha2 (COS-7 nuclear extract) (UniProt P41235).
T1 sequence: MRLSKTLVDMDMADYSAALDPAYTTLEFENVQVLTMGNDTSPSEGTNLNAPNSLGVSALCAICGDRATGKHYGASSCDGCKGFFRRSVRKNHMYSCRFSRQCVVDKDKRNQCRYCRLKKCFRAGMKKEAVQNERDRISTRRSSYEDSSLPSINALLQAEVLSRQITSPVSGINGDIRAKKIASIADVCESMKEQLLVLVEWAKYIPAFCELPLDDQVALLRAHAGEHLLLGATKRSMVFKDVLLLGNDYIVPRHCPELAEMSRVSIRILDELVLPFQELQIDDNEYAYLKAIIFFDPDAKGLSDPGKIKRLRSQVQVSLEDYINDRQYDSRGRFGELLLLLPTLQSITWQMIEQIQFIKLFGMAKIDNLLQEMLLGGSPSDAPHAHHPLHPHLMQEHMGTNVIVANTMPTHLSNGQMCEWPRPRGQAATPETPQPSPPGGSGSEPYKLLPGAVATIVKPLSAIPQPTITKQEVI
Kind of assay: protein-binding microarray. The conditions noted are these: COS-7 nuclear extract on double-stranded Agilent 4x180k PBM; binding buffer, salt, pH and temperature not given; high values mean tight binding; double strand, one strand shown; sequences stand for … in …GCCTAGGGAGATTAGAGTATCGGTCGA
For the sequence CCTTTGCCTCCACCTTCTCTCCCACTTATC, the binding signal (log2 normalized intensity) stood at 1.77.

Take ACTTCAAAGGGTGTTGTGACTACCTGGTTA: the binding signal (log2 normalized intensity) was 0.524.

Consider CGACTACAACAGCCTTGCAGATAAGCCACG, for which the binding signal (log2 normalized intensity) was -1.26.

Regarding CAGGACCATCTCGTCCCGTCAATCTGCAGC, the binding signal (log2 normalized intensity) is -0.854.

As to TGGATTCCTCCAGCCCTCCTCTCTGTAGTC, the binding signal (log2 normalized intensity) amounted to 1.04.

In the case of TCTCCCACAAGGGCAGCCCTGTTTAGGAGG, the binding signal (log2 normalized intensity) was -1.2.

As for GAGGCCAGTCTTACTGCTTTCTATTCAGAC, the binding signal (log2 normalized intensity) is -1.18.

In the case of TGTTCTGTTTAACAGAGATTTGCAGCTCAA, the binding signal (log2 normalized intensity) is -1.17.

As for TAAATGACATAGTGACATTTACAGATAAAG, the binding signal (log2 normalized intensity) was -0.989.

Take ACAGAACAGATGGTGTTAAATCCTATCCTA: the binding signal (log2 normalized intensity) was -1.12.

As for GCCACCTGCTGGCTGAGCATCACCAGTGCA, the binding signal (log2 normalized intensity) was -1.15.

Regarding TCCTGAGTGATTGTAGTGTCATTGTTATTT, the binding signal (log2 normalized intensity) is 2.06.

Regarding CTCCCTCCCTCCCCCATTAGAGGCACACTC, the binding signal (log2 normalized intensity) came out at 4.34.

Take AAGGAAATATCTTCCCATAAAACCTAGACA: the binding signal (log2 normalized intensity) is -0.978.

TGTTCACAAGGAATTGGAATTGGGAGGACA: the binding signal (log2 normalized intensity) came to 0.916.

On to GGTGAGTGGGGAAAGAGCCCCTTTGTCCAT, for which the binding signal (log2 normalized intensity) was 0.56.

Turning to TCGGTCACCCACACAAAAATGTGCCTTCCC, the binding signal (log2 normalized intensity) was -1.09.

On to CATGGGAGATAGAGCAGTGGAAGACAAATG, for which the binding signal (log2 normalized intensity) is -1.08.

Turning to GAAGGCCTGTTAAAAACACGAGCTATTGCG, the binding signal (log2 normalized intensity) is -1.13.

Consider TGAGGTGGCTGCAGAGTGGGAGGCCAAGAG, for which the binding signal (log2 normalized intensity) is -1.22.

As to ATAAAACTGGAATAAAGCAGTCCCTACTTC, the binding signal (log2 normalized intensity) was -1.18.

CCGGGGCGCCCTTTGTTCTCCGGGTTCTGC: the binding signal (log2 normalized intensity) was 2.02.

In the case of TGTAGGTAAGCACAAAGTACAGCTTTTTGT, the binding signal (log2 normalized intensity) was 1.13.

TGAATTAGTACCTCAATGCTATCTCCCAGT: the binding signal (log2 normalized intensity) amounted to 0.447.

For TTGTCAGATGAGGAAATTGAGGCTTAGCAG, the binding signal (log2 normalized intensity) is -0.906.

Regarding CGCGAGAGCCGAAGTCTCTCGCCGAGGCCC, the binding signal (log2 normalized intensity) is -1.15.

In the case of GATATTTAACCTTTGATCTGTAAGCTCTCT, the binding signal (log2 normalized intensity) amounted to 4.61.

As to AGAAAGTAGAACGGTGGTTGTCAGAGACTG, the binding signal (log2 normalized intensity) is -0.734.

For TTAACACAGGACAAATCAAGTGAAATGCCA, the binding signal (log2 normalized intensity) is -1.04.

For AGTGATAAGCAGAGGATGGGAATTAGGGAG, the binding signal (log2 normalized intensity) is -1.06.

As for TCATAACACTTGTATGACCTTTGTTTTATT, the binding signal (log2 normalized intensity) was 4.3.

On to CGGGCCCCAAGTGGCCATCTTCACGCAATA, for which the binding signal (log2 normalized intensity) was -1.22.

On to CTCGGGGATGGCATGTCTCTGGTCGGGGAG, for which the binding signal (log2 normalized intensity) is -1.1.

As for AAAACCCATGGACCTGACACCCGCTGGCGC, the binding signal (log2 normalized intensity) is -1.13.

As to TAAGGTTCAAAGGGAAAAAATAATCAGCTT, the binding signal (log2 normalized intensity) was -0.458.

As to AAAGGCCACCACAAACCCTTCATCCAGCTG, the binding signal (log2 normalized intensity) is -1.22.

Turning to AAGCTATTCACTTTTTGGCCTTTGGCTGTT, the binding signal (log2 normalized intensity) came to 2.7.

Regarding GATGATCATGGCTCACTGCACCTTGACCTC, the binding signal (log2 normalized intensity) was 7.34.

Consider CTATTCAGGTATTTGCTCTGTGATAGCCTT, for which the binding signal (log2 normalized intensity) was found to be 1.51.

Take GGTGGACTTTCCCCCCTCACACTTTGGCTA: the binding signal (log2 normalized intensity) was 3.71.

Consider CGATGTATACAGTATCTATAGTTATTGCAT, for which the binding signal (log2 normalized intensity) stood at 0.979.

As for CTGGTCTTTGTCCTGGGAGAACAAACCTTA, the binding signal (log2 normalized intensity) turned out to be 1.28.

Turning to ACTTTGGCGTGCTGTGTACTTTGAACTGAA, the binding signal (log2 normalized intensity) turned out to be 6.08.

Turning to TCCAACCTTTGCTCACTTGGGGGTGGGGTG, the binding signal (log2 normalized intensity) came out at 1.99.

Consider ACAACCAGGGAGATGTGAGCGACCTTTGCA, for which the binding signal (log2 normalized intensity) is 3.89.

In the case of AAATCCCGAGCCAGAGCCAAAGGGCATATT, the binding signal (log2 normalized intensity) was 1.43.

As for CCCATCAGCTGGGCTTGTTCAAATAACAGC, the binding signal (log2 normalized intensity) was -1.11.

With ACCTTTGTCCTCATTGAGCCCTCCCCTTGT, the binding signal (log2 normalized intensity) turned out to be 4.33.

For CTATGCACACGTTCAGTTAGAGGGCTCAAT, the binding signal (log2 normalized intensity) was -0.854.

For the sequence ACAGGTGGACAAACAGGCTGAACATGACTG, the binding signal (log2 normalized intensity) was -1.13.

In the case of GCAACAGAAAACTCAACTTCTAACTTCCGG, the binding signal (log2 normalized intensity) was -1.26.

For the sequence CCTAAAAATTATCTTTATCTTTTCACTTTT, the binding signal (log2 normalized intensity) was determined as 1.22.

TAATTTTCAACCTCTTTCTCTTTGATGTAA: the binding signal (log2 normalized intensity) was determined as 1.57.

For GACCTTTGATATTTGTGCCTAGTGGAAGGT, the binding signal (log2 normalized intensity) stood at 4.06.

Consider TTATCAGCAGTGACTTGAGAGGCCAGTTTC, for which the binding signal (log2 normalized intensity) is 0.527.

CTCCTCAACCTCTCCAATGCTATGCTTTTA: the binding signal (log2 normalized intensity) is -1.02.

Consider CATTTGCTCCCAGTGCACACAGACTTTTGT, for which the binding signal (log2 normalized intensity) is 0.601.

GGATGTGGGGTATCAGGTGGTGATGGTGGG: the binding signal (log2 normalized intensity) is 1.56.

As to GTGCAGTATCCCAGGGACTTACTCAACTAG, the binding signal (log2 normalized intensity) is -1.1.

In the case of ACTTTGGGGAAATGACCTTTGTCCAGCTGT, the binding signal (log2 normalized intensity) turned out to be 6.74.

In the case of GAAAATCAAAGACTCAGATGAGTTTCTTCA, the binding signal (log2 normalized intensity) was -0.976.

Take TGCAGTAAATGGACAGACACACCCTTCAGA: the binding signal (log2 normalized intensity) was -1.04.

AGCTGGCACAGCAGATGCTGGGCAAAGGGC: the binding signal (log2 normalized intensity) was determined as 3.17.

In the case of TTCCCCAGTGAGGATGTGTGCTCGAGGTGG, the binding signal (log2 normalized intensity) came out at 1.38.

Regarding CTTCCCCAAACTAGGAGAGTGGACTCACAG, the binding signal (log2 normalized intensity) came to 2.14.

Turning to CTGAGTTACAGATAAGCAGAAGGTCAGGTG, the binding signal (log2 normalized intensity) is 1.53.

For the sequence GCGTATTTCAACCTTTGATCTATAACCACG, the binding signal (log2 normalized intensity) was determined as 4.84.

Consider AGGTCCAAACTTCTCCACTCTTCATAATTA, for which the binding signal (log2 normalized intensity) turned out to be 0.806.

In the case of TCCAGGCTGCACAGTGGGGAGGGCAGGGTC, the binding signal (log2 normalized intensity) was determined as 1.31.

GGAAGAGAAGACCAAACAACCAGGGAGATG: the binding signal (log2 normalized intensity) is -1.11.

Turning to AACAAACAGTACATTCTGGAATGATACGCC, the binding signal (log2 normalized intensity) was -1.23.

On to ATCGAAGTCTGGGAAGCTGTGTGAAGTGAC, for which the binding signal (log2 normalized intensity) was determined as 0.601.

Consider CCAAAGAAGAAAACAATGACCTCTGCACCC, for which the binding signal (log2 normalized intensity) was determined as 5.17.

Consider ATAACCATCAAATCCTCGGAAGACGCACCT, for which the binding signal (log2 normalized intensity) is -1.1.

As to CGAGATCAAGGGACAGAGATAACTGGGGGC, the binding signal (log2 normalized intensity) is -1.25.

Take CTGCCTGTCTCACCTCGCTATCACCCCGAT: the binding signal (log2 normalized intensity) is 2.84.

As for TCTGTTGGTGGCACAGGGAATGGCTCGTAT, the binding signal (log2 normalized intensity) was 0.887.

For the sequence TGTGATGTTTGTAAACTGTCATGGTGCTGG, the binding signal (log2 normalized intensity) worked out at 1.66.

On to GTGTTGTGCTGACCTCCTGTCTCATCCTGT, for which the binding signal (log2 normalized intensity) amounted to 1.81.

Consider ACGATCAGCCAGCAGGGGGCGCAGAAGGGA, for which the binding signal (log2 normalized intensity) was -1.06.

As to TTCCAAAGTTCAACCTCATTATCTTCAGTC, the binding signal (log2 normalized intensity) worked out at 1.7.

With GTGAGGCATCTGGACCATTGCTGACCTTGC, the binding signal (log2 normalized intensity) amounted to 3.01.

Take AGGTGTCAGGGGTCAATGTGCACATTCGAA: the binding signal (log2 normalized intensity) stood at 4.3.

Take ATGTGGGGAAACTGGACTGTAATTTGTGGT: the binding signal (log2 normalized intensity) stood at 1.43.

Consider GTCTGCCCTCCATGTAACCCCTTTTCAATT, for which the binding signal (log2 normalized intensity) was 3.4.

TAAAGTCTGCTATCTAAAAGCTTATCTGCA: the binding signal (log2 normalized intensity) is -1.11.

Take ATGTTTTCACCAAGAGGGAAAAGATGGTCT: the binding signal (log2 normalized intensity) turned out to be 0.691.

On to AACAAATAAATAAGAAGCCTTATCAGTATC, for which the binding signal (log2 normalized intensity) was -1.34.

For the sequence CGGTGGGACTAAATTCTGCGGCGGAAGGAC, the binding signal (log2 normalized intensity) is -0.376.

For the sequence TTGACTGAGACTGCCTCAAACAGCTTCGCC, the binding signal (log2 normalized intensity) was -1.14.

For the sequence AACAGGTCCTGCTGGTTTGCCATTTGGAGA, the binding signal (log2 normalized intensity) was determined as 0.965.

Turning to GTATGAGGGTGAAGTTTGGCAATTACCCAA, the binding signal (log2 normalized intensity) is -0.771.

Take TTGCCTAAAGGGGATTTTCTCAGCTCTCCT: the binding signal (log2 normalized intensity) is -1.06.

Source of the values: publication PMC10726135.
